# According to PubChem BioAssay AID1508642 (National Center for Advancing Translational Sciences (NCATS), 2021):
# The whole screen tested about 43,000 compounds, of which about 200 (0.47%) were called active. Another 12% or so got no clear call; they are omitted. The call rests on the fitted dose curve; in most records, active means well fitted cell-killing curve with a large enough effect; inconclusive means small, poorly fitted or top-dose-only effect, or effect the other way; inactive means flat fitted curve, though single readings scatter. Some of the results follow.
# Assay: Cell viability qHTS assay in S16 Pmp22-F2sN cells; further: nearly all actives have a fitted effect of over 65% in size
# Details: S16 Pmp22-F2sN Schwann cells viability, CellTiter-Glo, 24 h; series mostly up to 57.5 µM; activity change, negative = cytotoxicity: at the top concentration
# Outline: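 S16 Pmp22-F2sN Schwann cells (500-1,000/well) in phenol-red-free DMEM with 10% FBS received 23 nL compound by pin tool for 24 h at 37 °C. Viability was then read as CellTiter-Glo luminescence after 15 min at room temperature.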
# On the % scale 0 is the no-effect control and ±100 the full control effect.
row,SMILES,"activity change, negative = cytotoxicity"
1,CC(=O)c1ccc(NC(=O)CCc2c(C)nn(-c3ccc4nncn4n3)c2C)cc1,inactive: 8.93%
2,CSc1ccc(CCNC(=O)c2cc3n(n2)CCCN(Cc2ccc(C)cc2)C3=O)cc1,inactive: -1.39%
3,CCOc1ccccc1N1CC(c2nc3ccccc3n2CCCOc2ccccc2OC)CC1=O (configuration not stated),inactive: 3.29%
4,COc1cccc(CNC(=O)Cn2ccc3cc(S(=O)(=O)N4CCCC4)ccc32)c1,inactive: 20.5%
5,O=C(Nc1sc2c(c1C(=O)NCc1ccccc1)CCCC2)c1cc(=O)c2cc(Cl)ccc2o1,inactive: 16.3%
6,CCc1ccccc1N1CC(c2nc3ccccc3n2Cc2cccc(C)c2)CC1=O (configuration not stated),inactive: -9.55%
7,N#Cc1ccccc1Cn1nnc2c(=O)[nH]c(C3CCCN(S(=O)(=O)c4ccc(F)cc4)C3)nc21 (configuration not stated),inactive: 0.286%
8,O=C(Nc1cccnc1Cl)c1cc(-c2ccc(Cl)cc2)on1,inactive: 11.9%
9,O=C(NCc1ccccc1)C1CCC(CNS(=O)(=O)c2ccc(Br)s2)CC1 (configuration not stated),inactive: 17.1%
10,CC1CCc2nn(CC(=O)Nc3cccc(C(F)(F)F)c3)c(=O)cc2C1 (configuration not stated),inactive: 4.42%
11,COc1cc(NC(=O)Cn2c(=O)n(C(C)C)c(=O)c3oc4ccccc4c32)cc(OC)c1,inactive: 21.5%
12,CCOc1ccc(N2CC(c3nc4ccccc4n3CC(C)C)CC2=O)cc1 (configuration not stated),inactive: -2.46%
13,COc1cccc(CNC(=O)c2c(O)nc3ccccn3c2=O)c1,inactive: -2.15%
14,COc1cc(NC(=O)CCNS(=O)(=O)c2ccc3c(c2)CCN3C(=O)C2CC2)cc(OC)c1,inactive: 0.615%
15,COCC(=O)N1CCc2cc(OC)c(OC)cc2C1COc1ccc2c(C)cc(=O)oc2c1 (configuration not stated),inactive: 0.82%
16,COc1cc(-c2noc(-c3ccc(NCCc4ccccc4)c([N+](=O)[O-])c3)n2)cc(OC)c1OC,inactive: 10.1%
17,O=c1oc2ccc(Br)cc2cc1-c1nc(-c2ccccc2)no1,inactive: -3.38%
18,CCS(=O)(=O)N1CC(=O)N(c2ccc(C)c(C)c2)C(C)(C(=O)NC2CCCCC2)C1 (configuration not stated),inactive: 1.34%
19,CCC(C)NC(=O)C1CCC(CNS(=O)(=O)c2cccc3nsnc23)CC1 (configuration not stated),inactive: -3.53%
20,COc1ccc(C(=O)c2oc3ccccc3c2NC(=O)COc2c(C)cc(C)cc2C)cc1,inactive: -0.409%
21,Cc1cccc(NC(=O)CSc2nc3c(oc4ccccc43)c(=O)n2C(C)C)c1,inactive: -15.1%
22,COc1ccc(N2CCN(C(c3ccccc3)c3nnc(-c4ccccc4Cl)o3)CC2)cc1 (configuration not stated),inactive: 1.81%
23,CC1=C(C(=O)NCCc2ccc(Cl)cc2)C2(CCCCC2)OC1=O,inactive: -3.53%
24,COc1cccc(CNC(=O)Cn2ncc3c4ccccc4n(C)c3c2=O)c1,inactive: 9.69%
25,COCCNC(=O)CCCn1c(SCC(=O)Nc2cccc(C)c2)nc2c(sc3ccccc32)c1=O,inactive: -3.16%

row,SMILES,"activity change, negative = cytotoxicity"
1,COc1cccc(C(=O)Nc2nnc(S(=O)(=O)N3CCOCC3)s2)c1,inactive: -9.67%
2,CCCCOc1cccc(C(=O)Nc2cccc3ccc(C)nc23)c1,inactive: 9.94%
3,Cc1ccc(CS(=O)(=O)Cc2ccc(C(=O)NCCc3ccc(Cl)cc3)o2)cc1,inactive: -0.583%
4,CCOC(=O)c1c(C)[nH]c(C)c1S(=O)(=O)N1CCC(C(=O)Nc2ccccn2)CC1,inactive: 19.9%
5,Cc1ccc2oc(=O)n(CCNC(=O)Nc3ccccc3Cl)c2c1,inactive: -11.7%
6,COc1ccc(C2CC(=O)Nc3c2c(=O)nc2c(C)cccn32)cc1 (configuration not stated),inactive: 15.3%
7,Cc1cc(C)c2c(=O)cc(C(=O)Nc3ccccc3Cl)oc2c1,inactive: 9.86%
8,Cc1ccc2c(CC(=O)Nc3cc(C(F)(F)F)ccc3Cl)coc2c1C,inactive: -4.76%
9,CCC12CN3CC(CC)(CN(C1)C3c1ccc(OCc3ccccc3)cc1)C2=O (configuration not stated),inactive: 3.7%
10,O=C(Cn1nnc2sc3c(c2c1=O)CCCC3)Nc1ccc(F)c(Cl)c1,inactive: -4.24%
11,CCCS(=O)(=O)NCCc1csc2nc(-c3ccc(OC)cc3)nn12,inactive: -22.6%
12,COc1ccc(C2NC(=O)NC(C)=C2C(=O)Nc2cc(C)cc(C)c2)c(OC)c1 (configuration not stated),inactive: -5.44%
13,Cc1ccccc1CNC(=O)CCCn1nc(C)c2sc3ccccc3c2c1=O,inactive: 9.2%
14,CCc1c(C)nc2nncn2c1Nc1ccc(C)c(F)c1,inactive: -11.3%
15,COc1ccccc1N(CC(=O)NCCSCc1ccc(Cl)cc1)S(C)(=O)=O,inactive: 0.264%
16,CN(Cc1ccccc1)c1ncnc2c1nc1n2CCCC1,inactive: 2.91%
17,COc1ccccc1NC(=O)N(Cc1ccco1)C1CCN(C(C)=O)CC1,inactive: 9.36%
18,CCOc1cc(C#N)c(NC(=O)c2ccc(OC)c(S(=O)(=O)N3CCCC3)c2)cc1OCC,inactive: 15.1%
19,O=S(=O)(c1ccccc1)c1nc(-c2ccc(F)cc2)oc1N1CCOCC1,inactive: 5.1%
20,Cc1nc2cc(-c3cccc(F)c3)nn2c(C)c1CCC(=O)N1CCN(c2ccc(F)cc2)CC1,inactive: 6.48%
21,Cc1ccc(NC(=O)c2ncn(-c3ccccc3)n2)c(Cl)c1,inactive: 9.88%
22,Cc1cccc(-c2noc(CN(C(=O)c3ccc(C)c(C)c3)C(C)C)n2)c1,inactive: -3.83%
23,COc1ccc(C)cc1N(C)C(=O)c1sc2nc3n(c(=O)c2c1C)CCCCC3,inactive: 6.34%
24,Cc1ccc(NC(=O)c2ccc3nc(Cc4ccccc4)oc3c2)cc1F,inactive: 5.45%
25,CCN(CC)c1ccc2cc(-c3nnc(-c4cccc(Cl)c4)o3)c(=O)oc2c1,inactive: -19.3%

row,SMILES,"activity change, negative = cytotoxicity"
1,CCCCN(C)CCNC(=O)Cn1ncc2c3ccccc3n(CCC)c2c1=O,inactive: -12.5%
2,COc1cccc(NC(=O)CSc2nc(-c3ccccc3)nc3c2Cc2cc(Cl)ccc2O3)c1,inactive: 7.04%
3,CCCCCn1c(=O)[nH]c2cc(C(=O)NCc3ccc(C)cc3)ccc2c1=O,inactive: 0.221%
4,CCOc1ccc(CCNC(=O)C2=C(C)C(=O)OC23CCC(C)CC3)cc1OCC (configuration not stated),inactive: 2.58%
5,Cc1cccc(Cn2c(CNS(=O)(=O)c3ccc(Cl)s3)nc3cccnc32)c1,inactive: -22.2%
6,CCOc1ccc(-c2cc3c(=O)n(CC(=O)Nc4c(C)cccc4C)ccn3n2)cc1,inactive: 3.04%
7,Cc1ccc2[nH]c(CSc3nnc(NC(=O)COc4ccccc4F)s3)cc(=O)c2c1,inactive: 10.2%
8,Cn1c(=O)oc2cc(S(=O)(=O)NCCC(=O)Nc3ccc(F)c(Cl)c3)ccc21,inactive: -0.619%
9,Cc1cccc(C2N3CC4(C(C)C)CN2CC(C(C)C)(C3)C4=O)c1 (configuration not stated),inactive: 11.5%
10,CCC(Cn1nnc2ccccc2c1=O)NC(=O)Nc1cc(Cl)ccc1OC (configuration not stated),inactive: 23%
11,CCOc1ccc(NC(=O)CCCN2C(=O)C(c3ccccc3)Oc3cccnc32)cc1 (configuration not stated),inactive: 9.84%
12,Cc1ccc(Cl)cc1NC(=O)/C(C#N)=C/c1c(C)n(Cc2ccccc2)c2ccccc12,inactive: -29.2%
13,CC1CCCCN1C(=O)CSc1nnc(-c2cccc(Cl)c2)o1 (configuration not stated),inactive: -0.696%
14,Fc1ccc(-c2csc(-c3nc(-c4ccc(Br)s4)cs3)n2)cc1,inactive: -2.03%
15,Cc1cc(C)c(NC(=O)CSc2nc(=O)n(Cc3ccco3)c3c2CCC3)c(C)c1,inactive: 4.38%
16,O=C(NCCc1ccc(Cl)cc1)c1ccc2nc(Cc3ccccc3)oc2c1,inactive: 13.4%
17,COc1cccc(-c2nc(SCc3cc(=O)c4cc(Cl)ccc4[nH]3)n[nH]2)c1,inactive: -0.81%
18,CS(=O)(=O)c1ncc(N(Cc2ccccc2)Cc2ccco2)c(C(=O)Nc2cccc(C(F)(F)F)c2)n1,inactive: -2.2%
19,CCOC(=O)c1c(NC(=O)c2cc(-c3ccccc3)on2)sc2c1CCCC2,inactive: 4.78%
20,CC(C)Cn1c(=O)c2sccc2n2c(CCCC(=O)Nc3ccc(Cl)cc3)nnc12,inactive: 2.08%
21,Cc1ccc2c(c1)c(=O)c(S(=O)(=O)c1ccc(F)cc1)cn2CC(=O)Nc1ccc2c(c1)OCO2,inactive: -1.15%
22,Cc1ccc(Cl)cc1NC(=O)NC1COc2ccccc2C1 (configuration not stated),inactive: 16.9%
23,O=C(Cc1ccc(Cl)cc1)Nc1ccc2oc(-c3ccccc3)nc2c1,inactive: 24.8%
24,CCN(CC)C(=O)c1sc2c(c1C)c(=O)n(-c1ccc(C)c(C)c1)c(=O)n2CC(=O)Nc1ccc(F)cc1,inactive: -21.2%
25,CC(C)(C)C1CCc2c(sc(NC(=O)c3ccccc3F)c2C(=O)N2CCCCC2)C1 (configuration not stated),inactive: -0.0512%

row,SMILES,"activity change, negative = cytotoxicity"
1,CCc1ccc(CN(Cc2ccco2)C(=O)c2cc(-c3ccc(Cl)cc3)on2)cc1,inactive: 0.36%
2,Cc1cc2c(cc1S(=O)(=O)Nc1cccc(C(F)(F)F)c1)OCCN2C,inactive: 0.245%
3,CCOc1ccc(-c2nonc2NC(=O)c2ccccc2C)cc1,inactive: 3.98%
4,Cc1cc(C)cc(C(=O)Nc2cc(C(F)(F)F)ccc2N2CCN(c3ccccc3)CC2)c1,inactive: -10.6%
5,Cc1ccccc1NC(=O)Cn1c(=O)n(Cc2ccc3c(c2)OCO3)c(=O)c2oc3ccccc3c21,inactive: 8.61%
6,Cc1ccc(-c2cn3cccc(C)c3n2)cc1NS(=O)(=O)c1ccccc1,inactive: 0.608%
7,COc1ccc(OC)c(CCNC(=O)CCn2c(=O)c3cccn3c3cccnc32)c1,inactive: 17.7%
8,CCCCN(c1ccccc1)c1ncnc2c1cnn2-c1ccc(Cl)cc1,inactive: 6.48%
9,Cc1ccc(CN(Cc2ccco2)c2cnc(S(C)(=O)=O)nc2C(=O)Nc2ccc(Br)cc2)o1,inactive: -12.8%
10,Cc1ccc(-c2nn3c(C)nnc3c3ccccc23)cc1S(=O)(=O)NCCO,inactive: 12.6%
11,Cc1cccc(N(CC(=O)NC(C)c2ccccc2)S(=O)(=O)c2ccccc2)c1C (configuration not stated),inactive: 1.22%
12,CCOc1cc(C(=O)OCc2cc(=O)n3c(C)csc3n2)cc(OCC)c1OCC,inactive: 10.6%
13,CC(=O)Nc1ccc(S(=O)(=O)NCC2CCC(C(=O)NCCCOC(C)C)CC2)cc1 (configuration not stated),inactive: 1.18%
14,O=C(c1ccccc1)N1CCc2cc(CNS(=O)(=O)c3ccccc3Cl)ccc21,inactive: -29.2%
15,CCOc1ccc(-c2cc3c(=O)n(Cc4nc(-c5cccc(OC)c5OC)oc4C)ccn3n2)cc1Cl,inactive: -9.66%
16,Cc1ccc(CNC(=O)c2cn(C)c3ccc(S(=O)(=O)N(C)C4CCCCC4)cc3c2=O)cc1,inactive: 0.841%
17,CCc1ccc(-n2nc3ccc(NC(=O)c4cc5ccccc5o4)cc3n2)cc1,inactive: -1.64%
18,Cc1cc(C)c(Cn2c3ccccc3c3cnn(CC(=O)NCCCc4ccccc4)c(=O)c32)c(C)c1,inactive: -0.855%
19,O=C(NCCc1ccccc1)c1ccc(Cn2c(SCc3ccc(F)cc3)nc3cccnc32)cc1,inactive: 7.84%
20,O=C(NCc1cccc(Cl)c1)c1cccn1-c1nnc(N2CCCC2)s1,inactive: -3.69%
21,Cc1ccccc1Nc1c(-c2ccsc2)nc2c(C)cccn12,inactive: 5.26%
22,COc1ccc(OC)c(S(=O)(=O)N2Cc3ccccc3CC2C(=O)Nc2ccc(C(C)=O)cc2)c1 (configuration not stated),inactive: -6.47%
